PubChem BioAssay AID1030 (National Center for Advancing Translational Sciences (NCATS), 2008)
The campaign covered roughly 220,000 compounds. About 16,000 (7.3%) were called active. Inconclusive means that the source gave no clear call. Such entries were picked first, then a sample of the others. The call rests on the fitted dose curve; in most records, active means well fitted inhibition curve with a large enough effect (not every such curve was filed as active); inconclusive means small, poorly fitted or top-dose-only effect, or another doubt; inactive means no such curve, though single readings can be large or run the other way. Potencies of inconclusive entries are left out as doubtful fits.

Molecular target: Aldehyde dehydrogenase 1A1 (Homo sapiens) (UniProt P00352)
Chain of UniProt P00352 (P00352 whole entry, looked up): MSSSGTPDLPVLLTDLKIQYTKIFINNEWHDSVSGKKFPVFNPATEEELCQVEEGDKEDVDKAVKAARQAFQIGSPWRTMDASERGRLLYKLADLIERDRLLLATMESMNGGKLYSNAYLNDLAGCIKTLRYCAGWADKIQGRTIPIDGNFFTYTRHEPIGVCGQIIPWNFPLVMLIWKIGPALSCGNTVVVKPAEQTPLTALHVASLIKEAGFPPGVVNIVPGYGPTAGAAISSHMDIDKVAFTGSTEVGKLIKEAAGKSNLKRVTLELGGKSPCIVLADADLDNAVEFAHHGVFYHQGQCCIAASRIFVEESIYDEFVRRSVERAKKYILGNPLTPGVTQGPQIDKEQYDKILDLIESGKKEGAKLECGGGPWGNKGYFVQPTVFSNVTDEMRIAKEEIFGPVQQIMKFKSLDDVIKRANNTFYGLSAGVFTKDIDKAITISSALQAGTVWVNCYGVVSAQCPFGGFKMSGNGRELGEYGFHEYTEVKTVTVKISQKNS
Assay: qHTS Assay for Inhibitors of Aldehyde Dehydrogenase 1 (ALDH1A1)
Conditions: Purified ALDH1A1, NADH fluorescence, propionaldehyde substrate; series mostly up to 75.3 µM
Potency means the concentration at half of the fitted maximal effect; tags describe the fitted curve by direction and shape.

O=C(COC(=O)CCc1nc2ccccc2s1)NC(=O)NCc1ccco1 was tested. Which Potency did it give?
Its Potency is “inactive”.

CC1Cc2ccccc2N1Cc1nc2cc(Cl)ccc2c(=O)[nH]1 (stereo not drawn) was tested. Which Potency did it give?
Its Potency is inconclusive [inhibitor, single point].

CCOC(=O)c1ccc(NC(=O)/C=C/c2cccs2)cc1 was tested. Which Potency did it give?
Its Potency is inconclusive [inhibitor, single point].

With CCOC(=O)c1ccc(NC(=O)NC2CC3CCC(C2)N3Cc2nnnn2C(C)(C)C)cc1 (stereo not drawn) as the compound, how does the Potency read?
The Potency was inconclusive [inhibitor, partial curve].

CC(C)Cc1nc(SCc2cccnc2)c2c(=O)n(C)c(=O)n(C)c2n1 was tested. Which Potency did it give?
The Potency was active: 7.08 µM.

Which Potency does the source give for CC1(C)C(=O)C(c2ccccc2)=C2CN3C(=O)N(CCc4ccccc4)C(=O)C3(Cc3ccccc3)C=C21 (stereo not drawn) here?
The Potency was “inactive”.

CCN(Cc1ccccc1)S(=O)(=O)c1ccc(S(=O)(=O)N(Cc2ccccn2)Cc2ccco2)cc1 was tested. Which Potency did it give?
The Potency was “inactive”.

With COc1ccc(CCNC2=C(Cl)C(=O)N(CCc3ccccc3)C2=O)cc1OC as the compound, how does the Potency read?
The Potency was inconclusive [inhibitor, partial curve].

How did the Potency turn out when CCCn1nc2cc(C(=O)NCC34CC5CC(CC(C5)C3)C4)ccc2c1OCC was run?
Its Potency is inconclusive [inhibitor, single point].

With Cc1cccc2cc(CN(Cc3nnnn3C3CCCCC3)C3CCCC3)c3nnnn3c12 as the compound, how does the Potency read?
Its Potency is active: 3.16 µM.

With CC(C)OCCCNC(=O)c1cc2c(=O)n(C)c3ccccc3c2n1C as the compound, how does the Potency read?
The Potency was inconclusive [inhibitor, single point].

NC(=O)CN1C(=O)C(O)(CC(=O)/C=C\c2ccc3c(c2)OCO3)c2ccccc21 (stereo not drawn) was tested. Which Potency did it give?
Its Potency is inconclusive [inhibitor, single point].

With Cn1ncc2c1ncn1nc(CCc3ccccc3)nc21 as the compound, how does the Potency read?
Its Potency is inconclusive [inhibitor, single point].

For CCOc1ccc(S(=O)(=O)N(CC)CC)cc1NS(=O)(=O)c1ccc(F)c(F)c1F, which Potency is on record?
Its Potency is inconclusive [inhibitor, partial curve].

CCc1ccc(CN2C(=O)c3ccccc3C2C(=O)NCC2CCCO2)cc1 (stereo not drawn) was tested. Which Potency did it give?
The Potency was “inactive”.

How did the Potency turn out when CC1(C2CC2)NC(=O)N(CC(=O)Nc2ccccc2-c2ccccc2)C1=O (stereo not drawn) was run?
The Potency was active: 17.8 µM.

How did the Potency turn out when Cc1ccc(NS(=O)(=O)c2cc([N+](=O)[O-])ccc2NNC(=S)Nc2cc(C)ccc2C)c(C)c1 was run?
Its Potency is active: 2.82 µM.

Which Potency does the source give for COc1ccc(S(=O)(=O)N2CCC(C(=O)N3CCOCC3)CC2)cc1 here?
Its Potency is “inactive”.

Which Potency does the source give for CNC(=O)c1cc2cc(OC)ccc2n1CCN(C)C here?
Its Potency is inconclusive [inhibitor, partial curve].

How did the Potency turn out when CCN1CCc2c(sc(N)c2C#N)C1 was run?
Its Potency is inconclusive [inhibitor, single point].

COc1cc(OC)cc(-c2nc3nc(C)c(CCC(=O)NCc4ccco4)c(C)n3n2)c1 was tested. Which Potency did it give?
The Potency was inconclusive [inhibitor, single point].

With CCn1c(SCC(=O)N/N=C/c2ccc(C)o2)nnc1-c1ccc(C)cc1 as the compound, how does the Potency read?
The Potency was inconclusive [inhibitor, single point].

With O=C(c1ccc(O)cc1)c1ccc(C(=O)c2ccc(O)cc2)cc1 as the compound, how does the Potency read?
Its Potency is “inactive”.

With CCOC(=O)C1(CC2CC2)CCN(C(=O)c2cccnc2C)CC1 as the compound, how does the Potency read?
The Potency was “inactive”.

Which Potency does the source give for C/C(CC1CC(COCC(C)C)OC1=O)=N\NC(N)=S (stereo not drawn) here?
The Potency was inconclusive [inhibitor, single point].

Which Potency does the source give for O=[N+]([O-])c1ccc(-c2nnc(-c3ccccc3)c(NCCCO)n2)cc1 here?
The Potency was inconclusive [inhibitor, single point].

With CCn1c(CNC(=O)c2ccco2)nnc1SCC(=O)c1ccccc1 as the compound, how does the Potency read?
Its Potency is “inactive”.

How did the Potency turn out when O=C(Nc1nccs1)C1CC(=O)N(Cc2ccco2)C1 (stereo not drawn) was run?
The Potency was inconclusive [inhibitor, single point].

With CC(C)CNC(=O)C1CCCN(C(=O)NCc2ccccc2)C1 (stereo not drawn) as the compound, how does the Potency read?
The Potency was “inactive”.

With Cc1nn(C)cc1/C=C/C(=O)c1cccs1 as the compound, how does the Potency read?
The Potency was inconclusive [inhibitor, single point].

For COc1ccc(C(=O)CSc2ccccc2C(=O)O)cc1, which Potency is on record?
Its Potency is “inactive”.

CCOc1ccc(S(=O)(=O)Nc2cc(S(=O)(=O)N(CC)CC)ccc2N2CCCC2)cc1 was tested. Which Potency did it give?
Its Potency is active: 0.794 µM.

CC1CCN(C(=O)C2CCN(CC(C)c3ccccc3)CC2)CC1 (stereo not drawn) was tested. Which Potency did it give?
The Potency was inconclusive [inhibitor, single point].

Which Potency does the source give for C=CCc1cc(C=O)cc(OC)c1OCc1ccc(Cl)cc1 here?
Its Potency is inconclusive [inhibitor, partial curve].

CCOc1cc(/C=N/N=C2/NC(=O)C(CC(=O)O)S2)ccc1OS(=O)(=O)c1ccc(C)cc1 (stereo not drawn) was tested. Which Potency did it give?
Its Potency is “inactive”.

CC1(C(=O)OCC(=O)Nc2cccc(S(=O)(=O)NC3=NCCCCC3)c2)CC1(Cl)Cl (stereo not drawn) was tested. Which Potency did it give?
Its Potency is “inactive”.

Which Potency does the source give for O=C(NCCc1ccccc1)c1cnn2c(C(F)F)cc(C3CC3)nc12 here?
Its Potency is inconclusive [inhibitor, partial curve].

For CCOC(=O)Cn1c(-c2ccc(Cl)nc2)nc2ccccc21, which Potency is on record?
The Potency was inconclusive [inhibitor, single point].

How did the Potency turn out when CO/N=C\CC(=O)Nc1ccc(F)cc1 was run?
Its Potency is “inactive”.

For COc1ccc(/C=N/Nc2cc(C)nc(-n3nc(C)cc3C)n2)cc1, which Potency is on record?
The Potency was “inactive”.

Which Potency does the source give for Cc1ccc(S(=O)(=O)Nc2ccc3ncccc3c2)cc1 here?
The Potency was inconclusive [inhibitor, single point].

How did the Potency turn out when CC(C)c1nc(N2CCCC2)c(C#N)c2c1CCCC2 was run?
The Potency was inconclusive [inhibitor, partial curve].

How did the Potency turn out when CC1(C)CC(=O)C2=C(C1)N(c1cccc(Cl)c1)C(=O)NC2(C(F)(F)F)C(F)(F)F was run?
The Potency was “inactive”.

With Cc1cccc(CN2CCN(C(=O)c3ccccc3F)CC2)c1 as the compound, how does the Potency read?
Its Potency is inconclusive [inhibitor, partial curve].

How did the Potency turn out when Cc1ccccc1/C=C/c1nc2ccccc2c(=O)[nH]1 was run?
The Potency was inconclusive [inhibitor, partial curve].

Which Potency does the source give for CCO/C=C/C(O)(CNC(=O)c1ccc(C(C)(C)C)cc1)C(F)(F)F (stereo not drawn) here?
Its Potency is “inactive”.

Which Potency does the source give for Clc1ccccc1OCCCCN1CCCC1 here?
Its Potency is “inactive”.

With S=C(c1ccc(Br)cc1)N1CCN(Cc2ccccc2)CC1 as the compound, how does the Potency read?
The Potency was inconclusive [inhibitor, single point].

Which Potency does the source give for O=C(/C=C/c1cccc(OCc2ccccc2)c1)c1cccnc1 here?
The Potency was inconclusive [inhibitor, single point].

How did the Potency turn out when O=C(COC(=O)CNC(=O)c1ccc(Cl)cc1Cl)Nc1ccc(N2CCOCC2)cc1 was run?
The Potency was inconclusive [inhibitor, single point].

Which Potency does the source give for COC(=O)C1=C(C)N(Cc2ccc(OC)cc2)C(=O)C1 here?
Its Potency is “inactive”.

CCOC(=O)C1=C(N)Oc2cc(C)n(CCc3ccc(OC)c(OC)c3)c(=O)c2C1c1cccnc1 (stereo not drawn) was tested. Which Potency did it give?
The Potency was inconclusive [inhibitor, single point].

For Cc1cccc2c1c1ccc3c(c1n2C)C(=O)C=CC3=O, which Potency is on record?
The Potency was active: 0.316 µM.

Which Potency does the source give for CCc1ccc(NC(=O)c2noc(C(C)C)c2[N+](=O)[O-])cc1 here?
Its Potency is inconclusive [inhibitor, single point].

How did the Potency turn out when Cn1c(N)c(C(=O)COC(=O)c2cccs2)c(=O)n(C)c1=O was run?
The Potency was active: 14.1 µM.

For O=C(COC(=O)Cc1cn2ccsc2n1)NCc1ccc2c(c1)OCO2, which Potency is on record?
The Potency was inconclusive [inhibitor, single point].

Which Potency does the source give for CCN(CC)S(=O)(=O)c1ccc(C)c(NC(=S)N2CCN(C/C=C/c3ccccc3)CC2)c1 here?
The Potency was inconclusive [inhibitor, single point].

With COc1ccc(C2Nc3ccccc3C(=O)N2Cc2ccco2)cc1COc1ccc(F)cc1 (stereo not drawn) as the compound, how does the Potency read?
Its Potency is active: 2.51 µM.

How did the Potency turn out when COc1ccc2oc(C(=O)NCCC(C)C)c(C)c2c1 was run?
Its Potency is inconclusive [inhibitor, single point].

With CC1(C)CC(C(=O)NCCC(c2ccccc2)c2ccco2)CCO1 (stereo not drawn) as the compound, how does the Potency read?
The Potency was inconclusive [inhibitor, single point].

Which Potency does the source give for COC(=O)[C@@]1(Cc2ccc(F)cc2)[C@H]2c3cc(C(=O)N(C)C)n(Cc4nc5ccccc5[nH]4)c3C[C@H]2CN1C(=O)c1ccccc1 here?
The Potency was inconclusive [inhibitor, single point].

Cc1ccc(N=Cc2c(C)[nH]n(-c3nc4ccccc4[nH]3)c2=O)cc1 was tested. Which Potency did it give?
The Potency was “inactive”.

Which Potency does the source give for COc1ccc(N2CCN(C(=O)c3cc(-c4cccs4)nc4ccccc34)CC2)cc1 here?
Its Potency is inconclusive [inhibitor, single point].

Which Potency does the source give for O=C(O)c1ccccc1-c1ccc(/C=C/c2cc(C(F)(F)F)[nH]c(=O)n2)o1 here?
Its Potency is inconclusive [inhibitor, single point].

How did the Potency turn out when COC(=O)c1ccc(-c2noc(CN3C[C@H]4CC[C@H]3C4)n2)cc1 was run?
The Potency was inconclusive [inhibitor, single point].

How did the Potency turn out when COc1ccccc1NC(=O)Cn1c(O)c(N=NC(=O)c2ccccc2O)c2ccccc21 was run?
The Potency was active: 1.58 µM.

With Cc1nnc(NC(=O)CSc2cn(Cc3ccccc3)c3ccccc23)s1 as the compound, how does the Potency read?
Its Potency is inconclusive [inhibitor, single point].

c1ccc(Nc2nc(-c3cccnc3)cs2)nc1 was tested. Which Potency did it give?
The Potency was “inactive”.

Nc1cnc(Br)cc1Br was tested. Which Potency did it give?
Its Potency is “inactive”.

With Nc1nc2c(s1)C(=O)CCC2 as the compound, how does the Potency read?
Its Potency is inconclusive [inhibitor, single point].

For COC(=O)/C(=C/c1ccco1)NC(=O)c1ccco1, which Potency is on record?
Its Potency is active: 10 µM.

Which Potency does the source give for CCOc1ccc(C2C=C(c3ccc(C)cc3)Nc3ncnn32)cc1 (stereo not drawn) here?
The Potency was inconclusive [inhibitor, partial curve].

How did the Potency turn out when O=C(c1ccccc1)c1ccc(N2CCCC2)cc1 was run?
Its Potency is inconclusive [inhibitor, partial curve].
